{"source": "PubChem BioAssay AID624296", "about": "(National Center for Advancing Translational Sciences (NCATS), 2012)", "note": "The whole screen tested about 350,000 compounds, of which about 9,900 (2.8%) were called active. The shares of active, inactive and inconclusive entries below differ from those in the screen. The call rests on the fitted dose curve; in most records, active means well fitted activation curve with a large enough effect; inconclusive means small, poorly fitted or top-dose-only effect; inactive means no such curve, though single readings can be large or run the other way. No potency is given beside an inconclusive call; the fits are too rough. Potency means the concentration at half of the fitted maximal effect; tags describe the fitted curve by direction and shape."}
{"assay": "A quantitative high throughput screen for small molecules that induce DNA re-replication in MCF 10a normal breast cells; further: nearly all actives have a fitted effect of over 50% in size; on activity, positive = re-replication: % of control where 0% means no effect.", "details": "MCF 10A DNA re-replication, Hoechst nuclear intensity, 48 h; activity, positive = re-replication: at 46.1 µM (top of the series)"}
{"smiles": "O=C1C(=O)N(c2nccs2)C(c2ccccc2F)/C1=C(\\O)c1ccc2c(c1)OCCO2", "note": "(stereo not drawn)", "Potency": "inconclusive [activator, partial curve, poor fit]"}
{"smiles": "NC1=NC2(CCC(c3ccccc3)CC2)n2c(nc3ccccc32)N1", "note": "(stereo not drawn)", "Potency": "inconclusive [activator, single point]"}
{"smiles": "CC(Sc1nnc(Cc2cccs2)n1C1CCCCC1)C(=O)NCc1ccco1", "note": "(stereo not drawn)", "Potency": "inconclusive [activator, partial curve, poor fit]"}
{"smiles": "CNc1oc(/C=C/c2cccc(OC)c2)nc1C#N", "Potency": "active: 20.6 µM"}
{"smiles": "O=C(c1ccc(-c2ccccc2Cl)o1)N1CCN(c2ccccc2O)CC1", "Potency": "inconclusive [activator, single point]"}
{"smiles": "COC(=O)CCC(=O)OC1(C)C(=O)C2=COC(c3ccc(OC)cc3)=CC2=C(Br)C1=O", "note": "(stereo not drawn)", "Potency": "inconclusive [activator, full curve, poor fit]"}
{"smiles": "Cc1nnc(NC(=O)C2CCN(S(=O)(=O)c3cc([N+](=O)[O-])ccc3Cl)CC2)o1", "activity, positive = re-replication": "inactive: 1.37%"}
{"smiles": "COc1ccc(CCN2CC(C(=O)NCc3ccco3)CC2=O)cc1OC", "note": "(stereo not drawn)", "Potency": "inconclusive [activator, partial curve, poor fit]"}
{"smiles": "O=C(CC1C(=O)NCCN1C(=O)c1ccc(Cl)cc1)Nc1ccc(F)cc1", "note": "(stereo not drawn)", "Potency": "inconclusive [activator, single point]"}
{"smiles": "O=C(NC1CCCC1)C(c1c(F)cccc1Cl)N(C(=O)c1csnn1)C1CC1", "note": "(stereo not drawn)", "Potency": "inconclusive [activator, single point]"}
{"smiles": "COc1ccc(COc2ccsc2C(=O)Nc2ccc(Cl)cc2)cc1", "Potency": "active: 18.4 µM"}
{"smiles": "CN1CCN(CC(=O)Nc2nc3c(s2)CCCC3)CC1", "Potency": "inconclusive [activator, single point]"}
{"smiles": "COCCn1c(=O)c2c(nc3n2CCCN3CCc2ccccc2)n(C)c1=O", "Potency": "inconclusive [activator, partial curve, poor fit]"}
{"smiles": "CCc1nc2ccc(C(=O)N3CCN(c4cccc(C)c4C)CC3)cc2nc1CC", "Potency": "inconclusive [activator, partial curve, poor fit]"}
{"smiles": "CCOC(=O)c1cc(CC)sc1NC(=O)COc1ccc2c(C)cc(=O)oc2c1", "activity, positive = re-replication": "inactive: -6.9%"}
{"smiles": "O=C(c1ccc(Cl)c([N+](=O)[O-])c1)N(Cc1ccc(F)cc1)C1CCS(=O)(=O)C1", "note": "(stereo not drawn)", "activity, positive = re-replication": "inactive: 11.5%"}
{"smiles": "O=C(Nc1ncccn1)C1CCCCC1", "Potency": "inconclusive [activator, single point]"}
{"smiles": "COc1ccc(NS(=O)(=O)c2cc(NC(=O)Cn3cnc4c3c(=O)n(C)c(=O)n4C)ccc2C)cc1", "Potency": "inconclusive [activator, partial curve, poor fit]"}
{"smiles": "Cc1ccccc1CSc1nc2n(n1)C(c1cccs1)C1=C(CCCC1=O)N2", "note": "(stereo not drawn)", "Potency": "active: 25.9 µM"}
{"smiles": "O=C(NCCC1=CCCCC1)c1ccc(Br)o1", "activity, positive = re-replication": "inactive: -0.247%"}
{"smiles": "COc1cc2nc(C3CCC3)n(NC(=O)COc3ccccc3)c(=O)c2cc1OC", "Potency": "inconclusive [activator, single point]"}
{"smiles": "COc1ccc2c(c1)O/C(=C\\c1sccc1C)C2=O", "Potency": "inconclusive [activator, single point]"}
{"smiles": "COc1ccc(CCNC(=O)COc2ccc(N(C)S(=O)(=O)c3ccc(C)cc3)cc2)cc1OC", "activity, positive = re-replication": "inactive: 10.3%"}
{"smiles": "Cc1ccc(S(=O)(=O)N2CCN(CCOc3cccc(C)c3)CC2)cc1", "activity, positive = re-replication": "inactive: -4.93%"}
{"smiles": "O=[N+]([O-])c1ccc(N2N=C(c3ccco3)CC2c2ccccc2)cc1", "note": "(stereo not drawn)", "Potency": "active: 8.2 µM"}
{"smiles": "Cc1c(NS(=O)(=O)c2ccc(F)cc2)c(=O)n(-c2ccccc2)n1C", "Potency": "inconclusive [activator, single point]"}
{"smiles": "CSC1=NC(=O)/C(=C/c2ccc(SC)cc2)S1", "activity, positive = re-replication": "inactive: 17.6%"}
{"smiles": "COc1ccc(OC)c(NC(=O)c2cc(-c3cc(C)cc(C)c3O)n[nH]2)c1", "Potency": "inconclusive [activator, partial curve, poor fit]"}
{"smiles": "Cc1ccc(-c2nnc(N3CCN(C(=O)COc4ccccc4)CC3)c3ccccc23)cc1", "Potency": "inconclusive [activator, single point]"}
{"smiles": "NC(=O)Cc1nc2scc(-c3ccc(Cl)cc3)c2c(=O)[nH]1", "Potency": "inconclusive [activator, single point]"}
{"smiles": "Cc1ccccc1Sc1ncnc2onc(C)c12", "Potency": "inconclusive [activator, single point]"}
{"smiles": "COc1cccc(NC(=O)Nc2ccc(C)c(Cl)c2)c1", "Potency": "inconclusive [activator, single point]"}
{"smiles": "O=C(NC(=S)Nc1cccnc1)c1cc2ccccc2o1", "activity, positive = re-replication": "inactive: -2.94%"}
{"smiles": "CC1CCCCC1NC(=O)CSc1nnc(CN2CCOCC2)n1C", "note": "(stereo not drawn)", "Potency": "inconclusive [activator, single point]"}
{"smiles": "Oc1cc(OCc2ccccc2)ccc1-c1[nH]ncc1-c1ccccc1", "Potency": "active: 23.1 µM"}
{"smiles": "CCOc1ccc(C(=O)NC(=S)N(Cc2ccccc2)Cc2ccccc2)cc1", "Potency": "inconclusive [activator, single point]"}
{"smiles": "Cc1cc(OCCCC(=O)NCCN2C(=O)S/C(=C\\c3cccnc3)C2=O)ccc1Cl", "Potency": "inconclusive [activator, partial curve, poor fit]"}
{"smiles": "Cc1ccc2[nH]c3c(c2c1)SC(C)(C)CC3=O", "Potency": "active: 18.4 µM"}
{"smiles": "CC1CN(CC(=O)Nc2cccc(C(=O)Nc3cccc(C(F)(F)F)c3)c2)CC(C)O1", "note": "(stereo not drawn)", "Potency": "inconclusive [activator, single point]"}
{"smiles": "O=C(CNCc1ccccc1)Nc1ccc(Cl)cc1", "Potency": "active: 18.4 µM"}
{"smiles": "Cc1cccn2c(=O)c3cc(C(=O)NCCN4CCOCC4)n(C)c3nc12", "Potency": "inconclusive [activator, single point]"}
{"smiles": "COc1ccc(-c2csc3nc(-c4cccnc4)nc(N4CCC(C(N)=O)CC4)c23)cc1OC", "Potency": "inconclusive [activator, partial curve, poor fit]"}
{"smiles": "CC1CCc2c(sc3nc(C4CC4)nc(N4CCN(C(=O)c5ccco5)CC4)c23)C1", "note": "(stereo not drawn)", "Potency": "active: 16.4 µM"}
{"smiles": "CC(C)OCCCNC(=O)c1cc(-c2cccs2)nc2ccccc12", "Potency": "inconclusive [activator, partial curve, poor fit]"}
{"smiles": "O=c1oc2cc(O)ccc2cc1-c1nc2c(s1)CCc1ccccc1-2", "Potency": "inconclusive [activator, partial curve, poor fit]"}
{"smiles": "Cc1c(Br)ccc(NC(=O)Cn2nc(-c3cccs3)ccc2=O)c1C", "Potency": "inconclusive [activator, single point]"}
{"smiles": "Cc1ccccc1CNC(=O)CN1C(=O)c2ccccc2S1(=O)=O", "activity, positive = re-replication": "inactive: 0.708%"}
{"smiles": "Clc1ccc(C2Nc3cccc4cccc(c34)N2)cc1", "activity, positive = re-replication": "inactive: -15.9%"}
{"smiles": "Cc1cn([C@H]2C[C@H](N=[N+]=[N-])[C@H](CO)O2)c(=O)[nH]c1=O", "activity, positive = re-replication": "inactive: 2.79%"}
{"smiles": "CC(C)(C)n1ncc2c(=O)n(CC(=O)NCc3ccccc3)cnc21", "Potency": "active: 14.6 µM"}
{"smiles": "N/C(=N\\OC(=O)Nc1ccc(Cl)c(Cl)c1)c1ncc(C(F)(F)F)cc1Cl", "Potency": "inconclusive [activator, partial curve, poor fit]"}
{"smiles": "COC(=O)[C@@H](NC(=O)O[C@@H]1C(=O)c2cc(Br)ccc2O[C@H]1c1cccc(OC)c1)C(C)C", "Potency": "inconclusive [activator, single point]"}
{"smiles": "COc1ccc(C(=O)/C=C/c2cc(C(=O)O)cc3c2OCOC3)c(O)c1", "Potency": "active: 18.4 µM"}
{"smiles": "O=C(Nc1cccc(F)c1)N1CCC(c2ccccc2)CC1", "Potency": "inconclusive [activator, single point]"}
{"smiles": "Cc1ccc2sc3ccc(NC(=O)c4ccccc4Cl)cc3c(=O)c2c1", "Potency": "inconclusive [activator, single point]"}
{"smiles": "CC(=O)c1c(C)[nH]c(C(=O)OCc2cccc(Cl)c2)c1C", "activity, positive = re-replication": "inactive: 19%"}
{"smiles": "Cc1cccnc1NC(=O)C1CCCN1S(=O)(=O)c1ccc(Cl)cc1", "note": "(stereo not drawn)", "activity, positive = re-replication": "inactive: 13.2%"}
{"smiles": "O=C(CCn1c(=O)c2ccccc2n(CC(=O)NC2CCCC2)c1=O)NCCc1ccc(Cl)cc1", "Potency": "inconclusive [activator, single point]"}
{"smiles": "COc1cc(NC(=O)c2cc3nc(C)cc(C)n3n2)c(OC)cc1Cl", "Potency": "inconclusive [activator, partial curve, poor fit]"}
{"smiles": "COc1cccc(NC(C)C(=O)Nc2cc([N+](=O)[O-])ccc2Cl)c1", "note": "(stereo not drawn)", "Potency": "inconclusive [activator, single point]"}
{"smiles": "COc1cc(C(=O)N[C@@H](Cc2c[nH]c3ccccc23)C(=O)O)cc(OC)c1OC", "Potency": "inconclusive [activator, single point]"}
{"smiles": "COc1ccc(N(CC(=O)N/N=C/c2cccnc2)S(=O)(=O)c2ccc(C)cc2)cc1OC", "activity, positive = re-replication": "inactive: -8.14%"}
{"smiles": "COc1c(O)cccc1/C=N/NC(=O)Cn1ccnc1C", "activity, positive = re-replication": "inactive: -5.28%"}
{"smiles": "CON(c1nc(Cl)nc(N(C)C)n1)S(=O)(=O)c1ccc(C)cc1", "Potency": "inconclusive [activator, single point]"}
{"smiles": "COc1cccc(/C=N/Nc2ncnc3c2ncn3Cc2ccccc2)c1O", "Potency": "inconclusive [activator, full curve, poor fit]"}
{"smiles": "COc1ccc(CNC(=O)c2ccc(Br)o2)cc1", "Potency": "inconclusive [activator, partial curve, poor fit]"}
{"smiles": "CN(c1ccccc1)c1ccc(/C=N/NC(=O)CC#N)cc1", "Potency": "inconclusive [activator, partial curve, poor fit]"}
{"smiles": "COc1cccc(N2CCN(c3ccc4nnc(CCC(=O)Nc5ccccn5)n4n3)CC2)c1", "activity, positive = re-replication": "inactive: 1.56%"}
